{"source": "PubChem BioAssay AID463173", "about": "(ICCB-Longwood Screening Facility, Harvard Medical School, 2010)", "note": "Among all 52,000 compounds or so, about 1,700 (3.3%) were called active. No stated cut-off is given here; in the data, active means survival mostly below about 52% (no sharp cut-off); inactive means mostly above about 56%. The list shows a part of the results.", "data": [{"tested_on": "Wild type", "assay": "growth inhibition of S. aureus wild type versus tarO mutant, primary screen, teichoic acid synthesis inhibitors, RN4220, OD600 (AID 463173)", "conditions": "S. aureus RN4220 wild type/DeltatarO growth, OD600, 18 h, stronger effect = lower value, screened at 18.75 µg/mL (by protocol)", "values": [{"smiles": "COC(=O)c1sccc1S(=O)(=O)N1CCN(c2cccc(C)c2C)CC1", "survival": "inactive: 67%"}, {"smiles": "Cc1ccc(Cl)cc1N1CCN(C(c2ccc(F)cc2)c2nnc(-c3ccccc3)o2)CC1", "note": "(stereo not given)", "survival": "inactive: 50%"}, {"smiles": "O=C(CSc1nnc(CNc2ccccc2)o1)N1CCc2ccccc21", "survival": "inactive: 105%"}, {"smiles": "N#Cc1cc2cc(Br)ccc2oc1=O", "survival": "inactive: 99%"}, {"smiles": "COc1ccc(-c2cc(C(=O)N3CCN(c4ccccc4OC)CC3)c3cc(C(C)C)ccc3n2)cc1", "survival": "inactive: 85%"}, {"smiles": "Cc1noc(/C=C/N(C)C)c1S(=O)(=O)N1CCCC(C(=O)Nc2cccc(F)c2)C1", "note": "(stereo not given)", "survival": "inactive: 73%"}, {"smiles": "CCOc1ccc(CC(=O)NCCc2csc3nc(-c4ccccc4F)nn23)cc1", "survival": "inactive: 119%"}, {"smiles": "CC1CCCc2c1nc(N)c(C#N)c2-c1ccccc1", "note": "(stereo not given)", "survival": "inactive: 108%"}, {"smiles": "CCS(=O)(=O)Cc1cccs1", "survival": "inactive: 109%"}, {"smiles": "O=C(CC(c1ccccc1)c1ccccc1)NCc1ccco1", "survival": "inactive: 114%"}, {"smiles": "Cc1ccc(CNC(=O)c2cn(C)c3ccc(S(=O)(=O)N(C)C4CCCCC4)cc3c2=O)cc1", "survival": "inactive: 83%"}, {"smiles": "CCc1ccc(-n2nc3ccc(NC(=O)c4cc5ccccc5o4)cc3n2)cc1", "survival": "inactive: 80%"}, {"smiles": "Cc1ccc(CNC(=O)c2nc(SCc3cccc(C)c3)ncc2Cl)cc1", "survival": "inactive: 116%"}, {"smiles": "CCOc1ccc(-c2cc3c(=O)n(Cc4nc(-c5cccc(OC)c5OC)oc4C)ccn3n2)cc1Cl", "survival": "inactive: 145%"}, {"smiles": "Nc1cc(C(=O)c2ccccc2)ccc1N1CCOCC1", "survival": "inactive: 118%"}, {"smiles": "CCC(=O)N1CCc2cc(S(=O)(=O)CCC(=O)N3CCN(c4cccc(C)c4)C(C)C3)ccc21", "note": "(stereo not given)", "survival": "inactive: 83%"}, {"smiles": "CCN(Cc1ccc(OC)cc1)c1ccc(-c2nc(-c3ccncc3)no2)cc1[N+](=O)[O-]", "survival": "inactive: 85%"}, {"smiles": "CC1CCN(C(=O)COc2ccc(C(C)C)cc2)CC1", "survival": "inactive: 115%"}, {"smiles": "COc1ccc(OC)c(S(=O)(=O)N2Cc3ccccc3CC2C(=O)Nc2ccc(C(C)=O)cc2)c1", "note": "(stereo not given)", "survival": "inactive: 79%"}, {"smiles": "Cc1cc(C)c(Cn2c3ccccc3c3cnn(CC(=O)NCCCc4ccccc4)c(=O)c32)c(C)c1", "survival": "inactive: 141%"}, {"smiles": "O=C(NCCc1ccccc1)c1ccc(Cn2c(SCc3ccc(F)cc3)nc3cccnc32)cc1", "survival": "inactive: 87%"}, {"smiles": "Cc1ccccc1Nc1c(-c2ccsc2)nc2c(C)cccn12", "survival": "active: 0%"}, {"smiles": "O=C(NCc1cccc(Cl)c1)c1cccn1-c1nnc(N2CCCC2)s1", "survival": "inactive: 32%"}, {"smiles": "COc1ccc(OC)c(CCNC(=O)CCn2c(=O)c3cccn3c3cccnc32)c1", "survival": "inactive: 82%"}, {"smiles": "CC(C)Cn1c(=O)c2ccccc2n2c(-c3ccc(Br)cc3)nnc12", "survival": "inactive: 86%"}]}]}
